The source of these data is the RNAGym collection of RNA variant scans (doi:10.7554/elife.90254).

B1: LINE1-mini (parent)
chain: GGCAGAGCUCAACACAGCGUGGCAAAGUGGCUGUGGCUAGACUGCC

The source gives no read counts; variants with many changes may rest on few reads.

Variants of B1 are the subject of the series. Briefly: self-cleavage, relative activity (ratio to wild type); higher = more cleavage; in vitro, sequencing; the parent is a self-cleaving ribozyme.
As to A14C C18G U43C, the self-cleavage is 0.03.

In the case of A14G G22U U34C, the self-cleavage amounted to 0.83.

Take A14C A41U G44U: the self-cleavage came out at 0.11.

With A14C C15U C31U G33U U34C, the self-cleavage came to 0.11.

Take A14G G36U G40A G44U: the self-cleavage is 0.

On to A14G G17C G22A G29C U34C C37U, for which the self-cleavage came out at 0.01.

Turning to A14G A25U G27U G40C, the self-cleavage came out at 0.12.

Consider A14C G17A G33C G36C, for which the self-cleavage stood at 0.01.

With A14C G17A G33C G36U, the self-cleavage was 0.02.

As to A14C C18G U20G G33A G35A C37G C42G, the self-cleavage was 0.01.

In the case of A14C C23U U32G U34C, the self-cleavage stood at 0.12.

Regarding A14G G35U C42A, the self-cleavage was found to be 0.

Take A14C C15U C18G G22U: the self-cleavage was found to be 0.04.

Take A14G C23G U28C C45A: the self-cleavage is 0.15.

A14C G40C G44U: the self-cleavage was determined as 0.05.

For A14C G17U C23A A25C, the self-cleavage was found to be 0.04.

In the case of A14C C15G G22U, the self-cleavage was found to be 0.05.

As to A14G G33U G40C, the self-cleavage came out at 0.

On to A14C G17A A25G G44A, for which the self-cleavage was 0.06.

Consider A14G A16G G17U G36U, for which the self-cleavage worked out at 0.02.

For A14C C37U C45A, the self-cleavage stood at 0.02.

Regarding A14G U20A G21C G40C U43A, the self-cleavage was 0.

For A14G G19A U20A G22A C45A, the self-cleavage amounted to 0.3.

As to A14G A25C G27U G36C, the self-cleavage was determined as 0.03.

Take A14C C18A U20C A25G: the self-cleavage came to 0.04.

With A14G C18G G33A A39G A41U, the self-cleavage was found to be 0.02.

Turning to A14C U20C U28G C46U, the self-cleavage was found to be 0.04.

With A14G C23A G29U, the self-cleavage was 0.27.

Turning to A14C U38C G40A, the self-cleavage is 0.06.

As for A14C G44U C45A, the self-cleavage stood at 0.04.

On to A14G U20G G35U, for which the self-cleavage stood at 0.07.

With A14G C15U G17U G29C G35A G44A, the self-cleavage amounted to 0.04.

In the case of A14C G29U G40A C45U, the self-cleavage was found to be 0.05.

Regarding A14G A26U G30U C31A, the self-cleavage came out at 0.19.

In the case of A14C G17U A25C G40A A41C, the self-cleavage came to 0.

For A14C G22U A39U, the self-cleavage turned out to be 0.04.

Consider A14C G17U G19A G35A G44U, for which the self-cleavage was 0.01.

Turning to A14C G27A C46G, the self-cleavage amounted to 0.09.

With A14C G29C C45U, the self-cleavage came to 0.04.

For A14C U38G G40C C42U, the self-cleavage is 0.05.

As for A14G C15G G35U, the self-cleavage was determined as 0.02.

Take A14C C23G C45U: the self-cleavage turned out to be 0.01.

In the case of A14G G40C A41C, the self-cleavage came out at 0.03.

As to A14G C18A U32C, the self-cleavage turned out to be 0.05.

Turning to A14G C23A G30U, the self-cleavage came out at 0.28.

With A14G A41C U43C, the self-cleavage was 0.05.

Take A14G A41C U43G: the self-cleavage was determined as 0.29.

Consider A14C G19U U38C, for which the self-cleavage stood at 0.03.

Take A14C C15A G22A: the self-cleavage came out at 0.01.

Regarding A14G C18U U28C, the self-cleavage stood at 0.62.

Take A14C C23G G30A C42G: the self-cleavage turned out to be 0.05.

Consider A14C U43C G44U, for which the self-cleavage came to 0.

Regarding A14C C42A C45G, the self-cleavage turned out to be 0.07.

On to A14C A24G G35A C37A G40A, for which the self-cleavage was 0.01.

Regarding A14G A26G C46A, the self-cleavage is 0.24.

Regarding A14C A25G U28G G33A U43A, the self-cleavage turned out to be 0.03.

Consider A14G C23A U32C C42A, for which the self-cleavage was determined as 0.04.

Take A14G G17C G29U: the self-cleavage is 0.09.

For the variant A14G G29U C31G G33C, the self-cleavage came to 0.03.

As to A14C A26C G30C C37A, the self-cleavage was 0.03.

With A14G C15G G36U, the self-cleavage was determined as 0.01.

For the variant A14C A25U G40U, the self-cleavage came to 0.06.

A14G G40U C42A: the self-cleavage amounted to 0.01.

In the case of A14G G17A C23G U32A, the self-cleavage stood at 0.03.

As to A14G C31G C42A, the self-cleavage is 0.

For A14C A16C G22U, the self-cleavage came to 0.11.

As for A14C C15A G17A G22A, the self-cleavage stood at 0.04.

As to A14C G22U U28C, the self-cleavage was 0.01.

Regarding A14G C37G U38G, the self-cleavage turned out to be 0.01.

Consider A14C G19C A26U U32A C42U, for which the self-cleavage is 0.06.

On to A14G U28G G35A, for which the self-cleavage was 0.12.

As to A14C C15U A26G U32G, the self-cleavage amounted to 0.05.

With A14G U20C A24C A25U C45G, the self-cleavage stood at 0.11.

With A14G C18A C23A A25U G44C, the self-cleavage stood at 0.13.

As to A14C C18U U20A A24U, the self-cleavage came to 0.01.

With A14G G21C A24U, the self-cleavage was found to be 1.18.

A14C U20G U38G C42U: the self-cleavage worked out at 0.05.

For A14C U20A G35C U38C, the self-cleavage came out at 0.01.

A14C C15U G27A U34G: the self-cleavage was 0.29.

As for A14G G33A C45G, the self-cleavage stood at 0.

Consider A14G G21U A26C, for which the self-cleavage was 0.19.

Regarding A14C G17A G22A C37G, the self-cleavage was 0.

For A14G G29A G33U G36U U38A, the self-cleavage was 0.03.

In the case of A14G G30C G35A C42A, the self-cleavage is 0.01.

As to A14C C15A G30U U32C G35U, the self-cleavage was 0.02.

On to A14G G44A C45A, for which the self-cleavage turned out to be 0.

For A14C G19U C23A, the self-cleavage was determined as 0.12.

As to A14C U34A A41U, the self-cleavage is 0.07.

Turning to A14G G29A U32G G36A, the self-cleavage stood at 0.02.

In the case of A14G G21C G40U A41G, the self-cleavage was determined as 0.02.

Take A14C G17U A26U U32C G35C G40U: the self-cleavage was 0.2.

Turning to A14C G21U G36C G40A, the self-cleavage worked out at 0.

As to A14C C15A A16U C37A, the self-cleavage is 0.05.

As for A14C G30A C42U, the self-cleavage is 0.04.

As for A14C C23G A39U, the self-cleavage is 0.6.

Consider A14G G19C A24U C31U, for which the self-cleavage worked out at 0.07.

Take A14G U28A U34A G44U: the self-cleavage came to 0.02.

With A14G A16G G19A, the self-cleavage stood at 0.46.

Turning to A14G G27A C46A, the self-cleavage is 0.41.

For A14C G30U C37A A39G C45U, the self-cleavage was determined as 0.07.

For the variant A14C G30A U38G, the self-cleavage stood at 0.02.

Turning to A14G C18G U20G, the self-cleavage was determined as 0.02.

In the case of A14G A16G G17C C18U G19A A26G U28C G40U, the self-cleavage stood at 0.01.

A14G G29A C45A: the self-cleavage was 0.04.

Consider A14G G33A A39U, for which the self-cleavage is 0.09.

In the case of A14C G21A U34G C37U, the self-cleavage came to 0.01.

Turning to A14C U20C U28G, the self-cleavage was determined as 0.19.

Take A14G G19A C31A: the self-cleavage was 0.13.

As to A14C G21U G22A C23G G30C A39G, the self-cleavage turned out to be 0.02.

In the case of A14C U20A G22C, the self-cleavage amounted to 0.05.

With A14C U32G C42A, the self-cleavage was 0.03.

As to A14G U20G C42G C45A, the self-cleavage was determined as 0.08.

On to A14C C18A G19A A25G C37A G44A, for which the self-cleavage was found to be 0.01.

With A14C G21U C31G C37G, the self-cleavage turned out to be 0.

Take A14C G36C A39C U43C C46A: the self-cleavage came out at 0.02.

Regarding A14G G17A G27A C42A, the self-cleavage came out at 0.06.

For A14C G21A C37U A39C, the self-cleavage came out at 0.04.

On to A14C A24C G35C G36A C37G, for which the self-cleavage is 0.24.

As for A14G C23A A25C G30C U32A C45A, the self-cleavage worked out at 0.02.

As for A14G G21U G22U G33U, the self-cleavage was determined as 0.09.

With A14G G35C C37U, the self-cleavage was 0.02.

As to A14C C15A U28C G36U, the self-cleavage is 0.06.

Regarding A14C G17U U20G U34G, the self-cleavage was 0.22.

For A14G C18U G33A C42A, the self-cleavage was 0.06.

On to A14C A16G G33A G35U, for which the self-cleavage was determined as 0.06.

A14C G29C A39U G40C: the self-cleavage was determined as 0.02.

On to A14C C15A C23A A25G C31A G40U, for which the self-cleavage came out at 0.

A14G G19C U32G: the self-cleavage came to 0.06.

In the case of A14C C15A C18A A24U G36U, the self-cleavage is 0.02.

As to A14C C18A U20G C23A A41U, the self-cleavage amounted to 0.18.

On to A14G A16G U32A G40A, for which the self-cleavage came to 0.01.

For the variant A14G A24U C45A, the self-cleavage is 0.09.

Consider A14C G22A A39U C42U, for which the self-cleavage is 0.01.

In the case of A14C C15A U20A A24C U38G C46G, the self-cleavage was 0.

On to A14C A16C C18U U28G, for which the self-cleavage stood at 0.

A14G C15G C37U U38C A41C C45U: the self-cleavage turned out to be 0.01.

As to A14C G27C U28A, the self-cleavage was determined as 0.05.

Regarding A14G A16U G21A G22U, the self-cleavage stood at 0.01.

On to A14G A16U A26U U38C G40C, for which the self-cleavage was 0.

As to A14G G19A A41U, the self-cleavage was found to be 0.32.

Turning to A14G A16C G40C A41U G44A, the self-cleavage was found to be 0.01.

Turning to A14G C15U A16U G19U G40A, the self-cleavage was determined as 0.02.

A14G U28C C31G C42U: the self-cleavage came to 0.16.

Take A14G G33A A39U G40U: the self-cleavage was determined as 0.03.

With A14G G29A G36A C42U, the self-cleavage was determined as 0.36.

As to A14G A26C U28C U34A C42U, the self-cleavage came to 0.

As to A14G A16U G17C U32C G44C, the self-cleavage came to 0.1.

Turning to A14C G21C C37A C42A, the self-cleavage turned out to be 0.03.

Consider A14G C15A U20G G22C A24C C46A, for which the self-cleavage came out at 0.02.

Take A14G G29A U38C: the self-cleavage amounted to 0.23.

Turning to A14G G19U U20A, the self-cleavage was 2.27.

Consider A14G G30C G36A, for which the self-cleavage was determined as 0.05.

As for A14C G21C G22C A41U, the self-cleavage turned out to be 0.02.

A14C C15G A41C: the self-cleavage was found to be 0.06.

Regarding A14G G19U A26C, the self-cleavage worked out at 0.38.

In the case of A14G A26U G30A G33A, the self-cleavage came to 0.08.

Regarding A14G C15G G19A, the self-cleavage is 0.04.

Consider A14G G22U U28A U32G, for which the self-cleavage is 0.05.

For the variant A14G C15U G17A A24C G35A G44C C46U, the self-cleavage was determined as 0.02.

For the variant A14C A41C C46G, the self-cleavage was found to be 0.03.

A14C G33A G35U: the self-cleavage was 0.13.

For A14G G35U C45A, the self-cleavage is 0.36.

As for A14C A16C G19U G30U C46A, the self-cleavage came to 0.07.

As for A14C G19A G22U G40C, the self-cleavage came to 0.05.

For A14C U20C G21U, the self-cleavage came out at 0.05.

With A14C C31A U43A, the self-cleavage turned out to be 0.16.

On to A14C C23A A26U G27C U32G A41G C45U, for which the self-cleavage is 0.02.
